Measured values from the RNAGym collection of RNA variant scans (doi:10.1073/pnas.2313332121).
Variants at the background level are over-represented here.

B1: TPR 5TU (parent)
chain: GGAUCUUCUCGAUCUAACAAAAAAGACAAAUCUGCCACAAAGCUUGAGAGCAUCUUCGGAUGCAGAGGCGGCAGCCUUCGGUGGCGCGAUAGCGCCAACGUUCUCAACUAUGACACGCAAAACGCGUGCUCCGUUGAAUGGAGUUUAUCAUG

Variants of: B1
Assay: polymerase ribozyme fitness, log enrichment relative to wild type (log ratio); higher = more active; in vitro selection for triplet polymerase activity
Outline: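 Only genotypes with ≥10 input reads and ≥1 read per output were kept after Illumina sequencing of input and output libraries. These libraries were PCR-built, transcribed mutants of each subunit of a heterodimeric triplet polymerase ribozyme, each put through one triplicate in vitro selection round with frozen incubation at −7 °C, gel excision of extended constructs, streptavidin-bead capture and RT-PCR. Fitness is a logarithmic ratio of genotype enrichment to wild-type enrichment, from inverse-variance-weighted replicate averages, with the logarithm in base 2.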

Polymerase ribozyme fitness (log ratio), -3.53:
A12C A52C C54U U145A

Polymerase ribozyme fitness (log ratio), -0.794:
G11C C116G

Polymerase ribozyme fitness (log ratio), -0.626:
G11A A60G A106G

Polymerase ribozyme fitness (log ratio), -0.578:
G11A C54U G83A A147U

Polymerase ribozyme fitness (log ratio), -3.09:
A12C C18G A40U C123U G136U

Polymerase ribozyme fitness (log ratio), -3.78:
A12C C57A G83U G136C

Polymerase ribozyme fitness (log ratio), -1.01:
G11A U55A U101G

Polymerase ribozyme fitness (log ratio), -1.32:
G11A A21U C85U

Polymerase ribozyme fitness (log ratio), -4.14:
G11U C32U G84A C85A C105U C132U U139G U151G

Polymerase ribozyme fitness (log ratio), ≤ -4.2:
C10U A17G C35U A49C C51U C76A C87U C96A G100A A113G
A12C C14A U90C A91G
G11C A26U A52C G58A G84U
A12C A39G C43G A49U C75A A91C C99U G143C
C10G U109C A137C
C10G U13A A49C G70A C96U U148G
G11A C27A A37C G59C G83A G86A G92A U102G G117U
A12C C14U A39U U55A A60U U82G G86U G100U C103A A113G
G11C A41U U44A G58A U77A G80A G83U
C10G G68A C79G
C10U A40G G59A U78A G94A C108U
C10G C54G G81A G88C C96A G126C U134G
C10G A47C G62C G68A C87A C118G U127C
C10G A17C A28U A64U C93U
A12C A19U A47U U53A C85A C118G U127C G143U
G11A C14U G84C
C10U A16U A28G A37C A60U C63U C85A A89C C108U
G11C G34C A60U U78G C85A C116U
G11C A22C C54A G88A C99U
G11U A19U A28C A52C C85U A97U
C10U C14G U77A G84C C108U U111C C118A
A12C C14U A22C U61G G65A G86A C93U U134G
C10G C76U G84U C95A U104G U134G G136A
G11C U82G G84A G143C
G11C A41C U55A C85U G117C A150G
C10G A17G A22U A24U G46U G59U C87G
C10U A64C A89C G117C A137C
A12C A20C U53A C76A U151G
G11A G25A A37C C43A A52C C54U G80C G92U A97U C123A
G11C G58U G86A
G11U A22U G50U G84A A97C G141A
C10G C35G G58U G81A A106G
C10G A40U A64U C76G C85A G117U G136A G143A
C10U A16G C43G U44G U77A U82A A120C
C10A G46U G62C G80A C118G
A12C C38G G46A G59C C79A G140C
C10G G84C
C10G C87U C99G U127A
A12C C32G U53A G62A G83A C99G G141U
C10U C57U C95G C96A G126C G140C
G11A A24U A66G U101G A107G A120G U139A
C10U A37C C54G C76U C95U G136U
C10G A66U C85U C93U U134C A142U U145G
A12C A23U C57U G67A U151G
G11A A26C U90G
G11C C36A U45A C87U A142U
C10U A39G G59C G71A U101C A115G G140U
C10G A22G U44A G80C
A12C A20U U61A G62U A89C G92A A107C A110G
C10U U44A G88C A89G A115C G140U A142G
C10U A17U A41C G50C G84A
C10G C38U A52C G88U
C10G U78G C85G U109C G140U
G11A C18G A24U G59A A73U G84A A89C C99G G124U C131G
G11C U56G C76A C79G U82A C93G U102G C103U C125A C129U U145G A150U
C10U G11C A17C A26U G81A G92A U111G A137G U148G
G11A A21U C51U U53A U55G C57U C96A A110C
A12C A29C C85A G133A
C10G A52C G86C U101G A107C C129A A142U
G11C A17C C27A C32G U61A G84U C85U U109A G117A A121U G133U
C10G G25U G34C A89C A107U
C10A G46U U55A U82G C87U C108G A147C
C10G G48C G88U
A12C A64C U144G
C10U A52C G84U A110C C129G U145C
C10G G11U A21C C27G C57U C85U C96A G117A C129A U144G
G11C U56A G86A
G11C C14U A21U A22C G86C C87G A121C C131U
C10A C35G C87U G112U C114U C118U
C10G A28C G58A A66C G71A C87U C93G
C10G C93G
A12C A23G U31C U55A
A12C A41U G83A C87U G140C
A12C A52U G71A C87U
C10U A19G U33A C79U C93U
A12C A52G A64U C116G A138U G141C
C10U A47U A89C C95U C105U
C10G U13C C57U U61A G94U U127G G136A
C10U A29U A40G A60G A64U G65C G83A G84A A91G U104G
G11U A12U A16U A41U G50A G84U A150G
C10G G58U C76A A97U C103G G117C U148G
C10G U15C C69A
C10A U13G C32G A37C C57A G88A G112C C114U
C10A C36A G71U U127G U146A
C10G A49C U53A C116G
G11C A47C U55A G81A C87G A120U U144A
G11U C38U U44A C57U C93G C103G
C10G G46A U90C C93U C108A U151G
C10U A23C U31C C57A G80C A107U U145A
A12C C38A C54U U55A C57G A73U C93G
G11U A12G A30U U53A C95U C132U
G11U G48C C79A C93G A119G G141U
C10G A52U C54U C57U G59C C63G G68U U78G G83U C96U A98U
C10U C69U A147C U148G C149G
G11A U15G A107G G141C U144C U145A G152A
C10U A29U A37U G59A G86A G152U
G11A A21G A23C C54U G70C C76A G83U
G11U A19C A21C C32U C36A A64U C93U A110G
G11U A29G U127A A138C
G11A A24C U53A C93U U148A
C10G A17G C72G G88C C125U U134A U139A
C10U C36A U45C C85U A119G U145G
C10G C57G C93G
G11C U13G G92A C95A A98G C129U C149A A150C
G11C G48C G59A A60C C108A G136A
A12C A30G G83U G86A
C10G A60G C96G U104A A110U U127C
C10G U55A A73C U77C A91U U101G U109A A115U
C10G U31C C95A
C10G U13G C87U C125U
G11U U56A C79G C87G C96U A142G
A12C C43U C69G U77G A121U C149A
C10A G42C U44A U53A C85A A122C
C10U G11A A19U U55A C75G G83U
A12C C18G U33G G81C A91C C95A A113C A115C
C10U C36U C54U G80U A91C U109A A110U U127A U148G
G11A G25C G50A A52G C75G U90G C103U U144A
C10A U13C U135G
C10G C57U C72U C87A A91G A110C U139A A147C
G11C A17U G50C A89C G94U U148G
C10U G42C C69A C95G A142G A150G
A12C A21C C57A C76U U101G C116G G140A G141U
A12C A17G A39G U44G G46C G59A G74C C87A C125A G128U
C10A C35A C93G C105A C123G U145A
C10A G59C U144G
C10G A89C U148C
G11A U31A A39U C93G C95U C99U A107G A113U C132U U135C A138G
G11U U13A C14G C76G C79G A98U
G11A G81A C93G C116U C129G
C10U G48A G88A C96A A142U
C10G A49G C57G C76A C85U
C10G U13A G46C G59C C85U G88A A119U
C10U C51G A52U C87A C123U G141C
C10A G58A C79U C85U G88U
G11C A24U C87A U139A
C10G C35U U55G G81A C87A
G11U A24U C51U C76U C93G C99G A121U A138U G140C
A12C C27G C79U G84U C85G G86C A107G U127C G143U C149A
C10U C57A G74U G88U A115G A119U U145G C149G
C10G G92C A107C C118U C123G
C10G C38U C123U G133U
A12C C27U A49C C57U C85U A89U C105U
C10U C14G G34U U56G
C10G U31C C76U C93G U102C U145G
G11U C14G A21G A22G U55C A60G C85G A89C
C10G A16U C35U C69G C87A G117U U148G
G11A C43A U82G G88C U145G
G11A C35A G58A G68C G86A G92U A107U A137G
C10A C76G G81A G86U A137U
G11C A17C A28U C85G C99A C103G C131G A147C
A12C C14A A29G G81A A91G C93U C103A
G11A A19U U61A G84C C85A C103G
A12C A23U G25C G50U U55A C87U A120G A142U A150U
C10U A39U C54U C87A C99A G133U

Polymerase ribozyme fitness (log ratio), -4.08:
C10U C75U G84A U145A

Polymerase ribozyme fitness (log ratio), -1.44:
G11A C57A

Polymerase ribozyme fitness (log ratio), -3.55:
G11U G86C

Polymerase ribozyme fitness (log ratio), -0.715:
G11A U31A
